In PubChem BioAssay AID360 (National Center for Advancing Translational Sciences (NCATS), 2006):
Among all 48,000 compounds or so, about 550 (1.1%) were called active. Roughly 4% stayed inconclusive and do not appear here. Rule as the data show it: active = potency below about 15 µM; inconclusive = mostly about 16 µM to 33 µM; inactive = weaker than that. Some of the results follow.

Molecular target: Lysosomal acid glucosylceramidase (Homo sapiens) (UniProt P04062)
Experiment: Glucocerebrosidase;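 also: the screen sought inhibitors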
Conditions: purified enzyme, resorufin glucoside fluorescence (screen aimed at inhibitors), 20 min
Outline: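 Normal human glucocerebrosidase (0.2 nM final) was assayed with resorufin β-D-glucopyranoside (30 uM final) in 50mM citric acid/KH2PO4, 10mM sodium taurocholate, 0.01% tween-20, pH 5.9. Compounds were titrated; fluorescence (Ex 548, Em 600) read after 20 min at RT.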
Potency is read from the fitted curve at half-maximal effect.

UniProt P04062, sequence (P04062 whole entry, looked up): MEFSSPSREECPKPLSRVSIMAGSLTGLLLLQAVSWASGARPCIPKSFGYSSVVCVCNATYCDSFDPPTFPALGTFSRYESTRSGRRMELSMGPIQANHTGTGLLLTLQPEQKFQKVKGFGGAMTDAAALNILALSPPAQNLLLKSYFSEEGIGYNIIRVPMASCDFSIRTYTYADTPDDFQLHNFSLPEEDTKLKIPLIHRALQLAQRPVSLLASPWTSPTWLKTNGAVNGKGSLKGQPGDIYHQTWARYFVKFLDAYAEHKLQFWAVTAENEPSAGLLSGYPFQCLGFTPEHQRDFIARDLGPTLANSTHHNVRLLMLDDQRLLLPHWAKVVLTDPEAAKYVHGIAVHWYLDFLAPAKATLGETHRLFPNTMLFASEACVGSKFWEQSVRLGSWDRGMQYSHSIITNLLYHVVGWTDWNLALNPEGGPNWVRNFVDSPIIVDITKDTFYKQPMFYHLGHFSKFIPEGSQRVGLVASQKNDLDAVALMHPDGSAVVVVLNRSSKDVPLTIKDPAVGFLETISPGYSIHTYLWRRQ

Potency, inactive:
Cc1ccc(C)c(N2CCN(C(=O)CCCOc3cc(=O)n(C)c4ccccc34)CC2)c1 > 76.9 µM, COc1ccc(CC(=O)n2nc(-c3ccccc3)nc2NCc2ccco2)cc1 > 76.9 µM, CCC(=O)N1CCc2cc(S(=O)(=O)NC(C(=O)NCc3ccc(C)cc3)C(C)C)ccc21 (stereo not drawn) > 76.9 µM, CCOC(=O)N1CCC(NC(=O)CCS(=O)(=O)c2ccc3c(c2)CCN3C(C)=O)CC1 > 76.9 µM, Cc1ccc2c(c1)[nH]c1c(=O)n(CCN3CCNCC3)cnc12 > 76.9 µM, Cc1ccc(N(CC(N)=O)C2SC(=O)N(Cc3ccccc3)C2=O)cc1 (stereo not drawn) > 76.9 µM, c1csc(-n2nc3ccccc3n2)c1 > 76.9 µM, Cc1cc(C)n(C(=O)C(C)N2C(=O)c3ccccc3C2=O)n1 (stereo not drawn) > 76.9 µM, Cc1cccc(S(=O)(=O)c2c(N)n(Cc3ccco3)c3nc4ccccc4nc23)c1 > 76.9 µM, Cn1c(=O)c2c(-c3ccccc3)n(Cc3ccccn3)cc2n(C)c1=O > 76.9 µM, CCOC(=O)C(NC(=O)c1ccccc1)(N1CCCC1=O)C(F)(F)F (stereo not drawn) > 76.9 µM, O=C(O)C1CCCN(C(=O)NCc2ccccc2)C1 (stereo not drawn) > 76.9 µM, O=C(O)c1cccc(S(=O)(=O)NCC2CCCO2)c1 (stereo not drawn) > 76.9 µM, O=C(Cn1cnc2ccccc2c1=O)NCCC(=O)N1CCN(Cc2ccccc2)CC1 > 76.9 µM, O=C(Nc1ccccn1)C12CC3CC(C1)CC(C(=O)Nc1ccccn1)(C3)C2 > 76.9 µM, Cc1cc(C)cc(NC(=O)CSc2nnc(CNC(=O)c3cccs3)o2)c1 > 76.9 µM, CCOc1ccccc1NC(=O)c1cc(Cl)ccc1NC(=O)c1ccco1 > 76.9 µM, CNC(=O)c1ccccc1NC(=O)c1c(O)c2c([nH]c1=O)CCCC2 > 76.9 µM, CCCN1C(=O)c2ccc(C(=O)NC3CCCCC3)cc2C1=O > 76.9 µM, O=C(c1ccco1)N1CCN(C(=O)C(Sc2ccccc2)c2ccccc2)CC1 (stereo not drawn) > 76.9 µM, Cc1ccc(Nc2oc(C)nc2C#N)cc1 > 76.9 µM, CCCCn1nnnc1SCC(=O)Nc1cccc(C)n1 > 76.9 µM, COc1ccc(C)cc1NC(=O)C1CCCCC1C(=O)O (stereo not drawn) > 76.9 µM, CCc1cccc2c(C#N)cn(CCOc3ccccc3OC)c12 > 76.9 µM, Cn1c(CCC(=O)Nc2ccc(N3CCOCC3)cc2)nc(=O)c2ccccc21 > 76.9 µM, N#Cc1cc2c(nc1SCc1cccnc1)CCC2 > 76.9 µM, Cc1ccc2nc3c(cc(C(=O)NCC4CCCO4)c(=N)n3CCCOC(C)C)c(=O)n2c1 (stereo not drawn) > 76.9 µM, O=C1CC(c2ccc(F)cc2)Sc2ccccc2N1 (stereo not drawn) > 76.9 µM, CC(C)CCNC(=O)C(c1ccco1)N(CC1CCCO1)C(=O)Cn1nnc2ccccc21 (stereo not drawn) > 76.9 µM, Cc1cc(C)cc(N2C(=O)CSC2c2cccs2)c1 (stereo not drawn) > 76.9 µM, COc1cccc(CN2C(=O)CN(C3CCCCC3)C(=O)C2c2ccc(F)cc2)c1 (stereo not drawn) > 76.9 µM, Cc1n[nH]c(C)c1S(=O)(=O)N1CCCC(C(=O)Nc2ccc3c(c2)OCCO3)C1 (stereo not drawn) > 76.9 µM, CN(Cc1ccccc1)C(=O)N[C@@H](Cc1ccccc1)C(=O)O > 76.9 µM, Cc1ccc2oc(=O)n(Cc3ccccc3OC(C)C)c2c1 > 76.9 µM, COc1ccc2c(c1)CC(C1(O)C(=O)Nc3ccccc31)C2=O (stereo not drawn) > 76.9 µM, CC(C)CCn1c(N2CCOCC2)nc2c1c(=O)n(CC(N)=O)c(=O)n2C > 76.9 µM, COC(=O)Cn1c2ccc(OC)cc2c2nc3ccccc3nc21 > 76.9 µM, COc1ccc(NC(=O)C2CCCN(c3c4c(nc5ncnn35)CCC4)C2)cc1 (stereo not drawn) > 76.9 µM, CCn1c(SCC(=O)N2CC(=O)Nc3ccccc32)nnc1-c1ccoc1C > 76.9 µM, CCOc1nc(NCc2ccco2)nc(Nc2ccc(OC)cc2)n1, COc1ccc(NC(=O)C2CC(c3cc(OC)c(OC)c(OC)c3)=NO2)cc1OC (stereo not drawn) > 76.9 µM, O=C1NC(c2ccc3c(c2)OCO3)Oc2ccccc21 (stereo not drawn) > 76.9 µM, CN1CCCC(C(=O)C(C#N)c2ccccc2)C1 (stereo not drawn) > 76.9 µM, CS(=O)(=O)N(CCc1ccccc1)CC(N)=O > 76.9 µM, Cc1cc(C(=O)Nc2cccc3ncccc23)no1 > 76.9 µM, Cc1ccc(CS(=O)(=O)CCC(=O)NCCN2CCCCC2C)cc1 (stereo not drawn) > 76.9 µM, CCCn1c(=O)c2ccccc2n2c(SCC(=O)NCc3cccs3)nnc12 > 76.9 µM, Cc1ccc2c(c1)[nH]c1c(=O)n(CCN3CCCCC3)cnc12 > 76.9 µM, Cc1ccc(-c2nnn(CC(=O)N3CCN(c4nc5ccccc5s4)CC3)n2)cc1 > 76.9 µM, Cc1cc(=O)[nH]c(SCCOc2ccc(OC(C)C)cc2)n1 > 76.9 µM, Cc1nn(C(=O)CCCC(=O)n2nc(C)c(Cl)c2C)c(C)c1Cl > 76.9 µM, CCOC(=O)c1[nH]c2ccc(OCC)cc2c1NC(=O)CN1CCN(c2ccccc2)CC1 > 76.9 µM, CCCCCn1c(CNC(C)=O)nc2ccccc21 > 76.9 µM, Cc1ccccc1-c1cc(-c2ccccc2O)n[nH]1 > 15.4 µM, Cc1nc(Nc2ccc(S(N)(=O)=O)cc2)oc1C > 76.9 µM, CCOCCCNC(=O)Cc1ccc(OC)c(OC)c1 > 76.9 µM, CCOC(=O)c1c(NC(=O)CSc2nnnn2C)sc(C)c1-c1ccc(C)cc1 > 76.9 µM, CCN(CC)C(=O)Cc1cc(C(=O)O)c2ccccc2n1 > 76.9 µM
